For 67 sequences, switch fluorescence ratio results are on record in the supplement of paper PMC10126150.

This data set deals with ATP. Kind of data set: switch fluorescence ratio, 500 uM ATP over buffer (Cy3 cluster intensity, sum of 5 cycles each) (fold (ratio)); higher = stronger signal-on switching upon ATP binding; sequences stand for … in TCGTCGGCAGCGTCAGATGTGTATAAGAGACAGTTTTTTTTTTTTTTTTTTTTTTTTT…TC. The settings on record: aptamer strand: ATP DNA aptamer (quencher-CACCTGGGGGAGTATTGCGGAGGAAGG + anchor), 100 nM annealed; ATP concentration: 500 uM; one replicate. A digest of the protocol:
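Exposure to 500 uM ATP lasted 15 min at 22 °C before imaging, and a selection-buffer image was taken beforehand, for Cy3-labelled switching-strand clusters on a modified Illumina MiSeq flow-cell annealed to 100 nM quencher-labelled ATP aptamer. Five buffer/ATP cycles were run with NaOH stripping and re-annealing between them. The fluorescence ratio per cluster is summed target-cycle over summed buffer-cycle Cy3 intensity, averaged per switch-domain sequence. Clusters outside 100-1000 RFU were excluded.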

Values marked as one replicate rest on one cluster of the flow cell; about a third of the high ones do not repeat.

Regarding GGTACTCGTC, the switch fluorescence ratio is 1.02.
With GTAACACGGC the figure was 0.962; with AATGCTCAGG, 1.08; with CACAACACAA, 1.07.
For AGTCTGAGGG, the switch fluorescence ratio came out at 0.973.
As to CCGAGTTAGC, the switch fluorescence ratio amounted to 1.33.
With GGACATTTGA the figure was 1.02; with GAGCTACTCT, 1.31.
As for GATGTGGATG, the switch fluorescence ratio was determined as 1.03.
With CTGGAGGAGT, the switch fluorescence ratio was 1.09.
With ATACACCAGA, the switch fluorescence ratio was determined as 1.07.
For GCTTGCTTGT the value was 1.03.
ACAACATCAG: the switch fluorescence ratio amounted to 0.983.
For the sequence GACTTTAGAG, the switch fluorescence ratio is 0.97.
As to CTCTAGGGG, the switch fluorescence ratio turned out to be 3.28.
As for AGACTGGTAG, the switch fluorescence ratio was determined as 0.966.
Turning to GTTCGGTGGG, the switch fluorescence ratio was found to be 0.988.
As for CAGCCCAAGT, the switch fluorescence ratio was 0.991.
For GTGAATAAGC the value was 1.03.
On to CACGTGACGC, for which the switch fluorescence ratio was 1.18.
TACAGTTAC: the switch fluorescence ratio is 1.18.
For GTTTGGAAAG the value was 0.994; for GGCATATACC, 1.18; for AATACAGTAT, 1.01.
Consider TTCCATCGGA, for which the switch fluorescence ratio was determined as 1.02.
Take CAGAATTCTC: the switch fluorescence ratio was 0.994.
Consider CGCCCTAGTA, for which the switch fluorescence ratio amounted to 1.03.
For the sequence TGGCGGGCCC, the switch fluorescence ratio worked out at 1.14.
For AGGAATGTGC, the switch fluorescence ratio came to 0.959.
For AGCTGTGCAT the value was 1.23; for CCCGCCAAGT, 1.55.
As for TCGTCATTAG, the switch fluorescence ratio came out at 1.06.
With CCAGTTCTT, the switch fluorescence ratio came out at 0.95.
TGGCGTTACC: the switch fluorescence ratio turned out to be 1.03.
For the sequence ACCCGGATAT, the switch fluorescence ratio was 1.13.
With TCAAATAGCA, the switch fluorescence ratio turned out to be 1.01.
For the sequence AGGTTGTAAG, the switch fluorescence ratio turned out to be 0.979.
As to CCGAGGTAT, the switch fluorescence ratio was 2.93.
Regarding ATAGTCGGGA, the switch fluorescence ratio stood at 0.982.
Take TAGTAGGTTT: the switch fluorescence ratio is 0.988.
Take AGGACACCCG: the switch fluorescence ratio amounted to 0.955.
In the case of GGATGGTCAT, the switch fluorescence ratio was 1.02.
For AAGTTATTTG, the switch fluorescence ratio came out at 1.06.
With TTTTGTAAAG, the switch fluorescence ratio came out at 0.978.
CGTTCTCATG: the switch fluorescence ratio was found to be 1.03.
Turning to TCCGGAACAT, the switch fluorescence ratio came to 1.38.
For the sequence CTAAATGATG, the switch fluorescence ratio is 0.993.
As for TCTAGTTATA, the switch fluorescence ratio came out at 1.
Turning to TTTAGGTAAA, the switch fluorescence ratio is 0.994.
For the sequence CGCCAAGGCG, the switch fluorescence ratio was 1.02.
Take TTATGCCTTA: the switch fluorescence ratio stood at 1.02.
For the sequence GACTTAATAT, the switch fluorescence ratio is 0.975.
For TGGTGCAA the value was 1.13.
Take GCGCCGGAGG: the switch fluorescence ratio was determined as 1.04.
As for ACGCCATTGT, the switch fluorescence ratio amounted to 1.04.
Turning to AGATATTCTG, the switch fluorescence ratio amounted to 0.999.
As for TTGCCTACTG, the switch fluorescence ratio was 0.899.
With GCGTCGATCG, the switch fluorescence ratio was found to be 0.998.
For TTCTGCCACA, the switch fluorescence ratio was found to be 1.09.
As to CTGAATCAGA, the switch fluorescence ratio came out at 1.03.
Regarding GTCCGTTAGG, the switch fluorescence ratio came to 0.976.
On to ATCCAAGATG, for which the switch fluorescence ratio was found to be 1.
With TCACCATGCT the figure was 0.952; with AATCGGTGAA, 1.03; with TGCTGATAAA, 0.994.
For TCGGTCCCG the value was 1.01.
As for TACTGTCACT, the switch fluorescence ratio was 1.3.
